Screen size: about 150,000 compounds; about 540 (0.36%) showed an effect of 50% or more. Some of the results follow.
tested on: Plasmodium falciparum; experiment: Primary screen in NF54 nanoGlo assay, in single point, at 2uM, 72h; a lower Z score goes with more inhibition; format: functional, Erythrocyte; settings: timepoint 72 hour

Which “% Inhibition” value does the source give for `Fc1cccc(F)c1-c1ncnn1C1CCCCC1` here?
The value was -6%.

What about the Z score of the same molecule?
Its Z score is 1.

Which results are given for `Cc1ccc(CCCNC(=O)CCc2ccco2)c(C)c1`?
% Inhibition: 20%; Z score: -2.54

For `COc1cc(OC)c(N2C[C@@H](C(=O)Nc3ccc(N4CCCC4=O)c(C)c3)CC2=O)cc1Cl`, which “% Inhibition” value is on record?
Its value is 8%.

And the Z score?
The Z score was -0.71.

With `OCCCN(Cc1cccnc1)Cc1cc2c(cc1Br)OCCO2` as the molecule, how does the “% Inhibition” value read?
Its value is -9%.

What about the Z score of the same molecule?
Its Z score is 1.28.

What does the source list for `CC(C)(C)n1cc(C(=O)OCCNc2cccnn2)cn1`?
% Inhibition: -3%; Z score: 0.51

Which “% Inhibition” value does the source give for `O=C(COCc1nnc(C(=O)Nc2cccc(F)c2)s1)NC1CCN(Cc2ccccc2)CC1` here?
The value was -15%.

What about the Z score of the same molecule?
Its Z score is 2.46.

How did the “% Inhibition” value turn out when `CCn1c(CO)nnc1[C@H]1C[C@@H](NC(=O)[C@H](O)C2CCCCC2)C1` was run?
Its value is -3%.

And the Z score?
Its Z score is 0.41.

`CCCn1cc(-c2ccncc2)cc1C(=O)NC1CCCC1` was tested. Which “% Inhibition” value did it give?
The value was -6%.

What about the Z score of the same molecule?
The Z score was 0.64.

`O=C(c1ccc2ncsc2c1)N1CC(Cn2nc(C3CC3)ccc2=O)C1` was tested. Which “% Inhibition” value did it give?
The value was -16%.

What about the Z score of the same molecule?
Its Z score is 3.12.

What does the source list for `CC(=O)N1CCC[C@H](C(=O)N2CCC3(CC2)C(=O)N(C)c2ccccc23)C1`?
% Inhibition: -5%; Z score: 1

With `COc1ccc(-n2cc(-c3ccc4c(c3)OCO4)n(CC(=O)Nc3cccc(C)c3)c2=O)cc1` as the molecule, how does the “% Inhibition” value read?
Its value is 11%.

What about the Z score of the same molecule?
Its Z score is -2.01.

Which results are given for `Cc1cnn(CCNC(=O)CC[C@H](C)N2CCN(C)CC2)c1`?
% Inhibition: 6%; Z score: -1.04

Which results are given for `O=C(Cc1ccc(F)cc1)NCC1(CO)CC1`?
% Inhibition: 7%; Z score: -1.1

What does the source list for `Cc1nc(NC(=O)C(C)N2CCCCC2Cn2cncn2)sc1C` (stereo not given)?
% Inhibition: 6%; Z score: -0.82

For `CCc1ccc2nc(C)cc(C(=O)N3CCc4nc(C)[nH]c(=O)c4CC3)c2c1`, which “% Inhibition” value is on record?
Its value is -10%.

And the Z score?
The Z score was 1.83.

What does the source list for `CS(=O)(=O)c1cnn(Cc2noc3c2CCCC3)c1`?
% Inhibition: 5%; Z score: -0.66

Which “% Inhibition” value does the source give for `CS(=O)(=O)CCC(=O)N(Cc1cccc2ccccc12)C1CC1` here?
Its value is -12%.

What about the Z score of the same molecule?
The Z score was 1.71.

With `CC(C)OCC(=O)N1CCC[C@](C)(F)C1` as the molecule, how does the “% Inhibition” value read?
The value was -2%.

What about the Z score of the same molecule?
The Z score was 0.32.

`CC(C)[C@H](Cn1cccn1)NCC(C)(C)Cc1ccccc1` was tested. Which “% Inhibition” value did it give?
The value was -8%.

What about the Z score of the same molecule?
The Z score was 1.23.

What does the source list for `Cc1noc(C)c1CNc1ccc2c(c1)C(=O)N(C)C2=O`?
% Inhibition: 4%; Z score: -0.6

`CC1CCCC(CC(=O)N2C[C@@H](C)[C@H](C(N)=O)C2)C1` (stereo not given in full) was tested. Which “% Inhibition” value did it give?
Its value is -9%.

What about the Z score of the same molecule?
The Z score was 1.22.

Which results are given for `O=C(NCc1ccco1)Nc1cccc(-c2nnco2)c1`?
% Inhibition: -13%; Z score: 2.02

Which results are given for `O=C(c1c[nH]nn1)N1CCOC[C@H]1c1nc(-c2cccs2)no1`?
% Inhibition: -2%; Z score: 0.3

With `COc1ccc(C(=O)NC[C@H]2CCCN3CCCC[C@@H]23)cc1` as the molecule, how does the “% Inhibition” value read?
Its value is -17%.

And the Z score?
The Z score was 2.08.

What does the source list for `CC1CCCC(NC(=O)NCCN2C(=O)CCC2=O)CC1` (stereo not given)?
% Inhibition: -14%; Z score: 2.68

For `O=C(NC1CCCCC1)C(=Cc1cccc(O)c1)C(=O)NC1CCCCC1`, which “% Inhibition” value is on record?
Its value is -19%.

What about the Z score of the same molecule?
The Z score was 2.31.

Which “% Inhibition” value does the source give for `COc1cc(F)cc(CNC(=O)NCc2nn(C)cc2Cl)c1` here?
The value was -9%.

And the Z score?
The Z score was 1.43.

Which “% Inhibition” value does the source give for `C[C@H](NC(=O)c1ccco1)c1nc(-c2ccc(=O)n(C)c2)no1` here?
The value was 31%.

And the Z score?
The Z score was -4.55.

For `O=C(Nc1nncs1)C(F)(F)C(F)(F)C(F)(F)C(F)(F)F`, which “% Inhibition” value is on record?
Its value is 6%.

What about the Z score of the same molecule?
The Z score was -0.74.

What does the source list for `CC(C)C(=O)N1CCC[C@H](c2nnc3ccccn23)C1`?
% Inhibition: -1%; Z score: 0.07

With `CCC1CN(CCCN2C(=O)CNC2=O)CCC1c1ccccc1` (stereo not given) as the molecule, how does the “% Inhibition” value read?
Its value is 33%.

What about the Z score of the same molecule?
The Z score was -4.5.

For `CC(C)(CN1CCCn2nc(CNC(=O)C3CCC3)cc2C1)N1CCOCC1`, which “% Inhibition” value is on record?
The value was -11%.

What about the Z score of the same molecule?
Its Z score is 1.41.

For `Cc1c(NC(=O)C(=O)N(C)CCN(C)C)cccc1N(C)C`, which “% Inhibition” value is on record?
The value was -12%.

What about the Z score of the same molecule?
The Z score was 1.64.

What does the source list for `CC(C)(C)c1ccc(C(=O)C(=O)NC2CCN(CC(N)=O)CC2)cc1`?
% Inhibition: -3%; Z score: 0.55

What does the source list for `CC1OCCC1(O)CN(Cc1ccccc1)C(=O)CC1CCCCC(=O)N1` (stereo not given)?
% Inhibition: 22%; Z score: -2.81

`CN(C(=O)c1cc2ccccc2o1)[C@H]1CCCN(CCCc2ccccc2)C1` was tested. Which “% Inhibition” value did it give?
Its value is 2%.

What about the Z score of the same molecule?
Its Z score is -0.24.

Which “% Inhibition” value does the source give for `CCOC(=O)c1[nH]c(C)c(C(=O)N2CCC(CC(=O)NC3CCCCC3)CC2)c1C` here?
Its value is -17%.

And the Z score?
The Z score was 1.51.

With `CN(CCN1CCCC1=O)S(=O)(=O)CCc1ccccc1` as the molecule, how does the “% Inhibition” value read?
Its value is 0%.

What about the Z score of the same molecule?
Its Z score is -0.02.

For `CCCn1cc(CNC(=O)N(C)CC2(C)COC2)cn1`, which “% Inhibition” value is on record?
The value was 6%.

And the Z score?
The Z score was -0.76.

Which “% Inhibition” value does the source give for `CCOC(=O)c1ccccc1NC(=O)NC[C@H](c1cccnc1)c1c[nH]c2ccccc12` here?
Its value is -7%.

What about the Z score of the same molecule?
Its Z score is 1.3.

Which “% Inhibition” value does the source give for `Cc1cc(-c2cccc(C(=O)N3CC=C[C@@H]3C(C)C)c2)nc(N)n1` here?
The value was -12%.

What about the Z score of the same molecule?
The Z score was 1.37.

What does the source list for `CCc1ocnc1C(=O)N1CCC2(CC1)[C@H](O)C[C@]2(C)OC`?
% Inhibition: -11%; Z score: 2.15

With `CC(C)OCCS(=O)(=O)N(C)C1Cc2ccccc2C1` as the molecule, how does the “% Inhibition” value read?
The value was 7%.

And the Z score?
The Z score was -1.12.

`COc1ccc(OCc2nc(C(=O)N(C)[C@@H](C)c3ccon3)co2)cc1` was tested. Which “% Inhibition” value did it give?
The value was -7%.

And the Z score?
The Z score was 1.28.

With `CN(C)C(=O)c1ccc(N2CCC3(CCCCC3)CC2)nc1` as the molecule, how does the “% Inhibition” value read?
The value was -8%.

And the Z score?
The Z score was 0.81.

What does the source list for `Nc1ncccc1CN1CCOC[C@@H]1CC(=O)NCCn1cccn1`?
% Inhibition: -11%; Z score: 1.25

Which results are given for `Cc1n[nH]c(C(=O)N(C)Cc2ccns2)c1O`?
% Inhibition: -12%; Z score: 1.93

What does the source list for `CC[C@H](C)n1nc(NC(=O)NCC2(C3CC3)CCC2)cc1C`?
% Inhibition: -4%; Z score: 0.39

What does the source list for `CCCN1CCN(C(=O)CN2CCCC2=O)c2ccc(F)cc21`?
% Inhibition: 37%; Z score: -5.36

How did the “% Inhibition” value turn out when `CC(C#N)NC(=O)[C@@]12CCC[C@@H]1CN(Cc1ccccc1)C2` (stereo not given in full) was run?
Its value is -7%.

And the Z score?
Its Z score is 1.01.

What does the source list for `Cc1n[nH]c(=O)c2cc(S(=O)(=O)N3CCN(c4ccccc4)CC3)cn12`?
% Inhibition: -5%; Z score: 0.67

How did the “% Inhibition” value turn out when `CCOC(=O)N1CC[C@H](NC(=O)c2cnc(C3CC3)nc2)C1` was run?
Its value is -8%.

What about the Z score of the same molecule?
Its Z score is 1.49.

`Nc1nc(C2CC2)nc(N2CCO[C@H](c3ccccc3)C2)n1` was tested. Which “% Inhibition” value did it give?
The value was 5%.

What about the Z score of the same molecule?
Its Z score is -0.99.

How did the “% Inhibition” value turn out when `CN(C)c1ccc(CN2Cc3ccccc3OCC2=O)cc1` was run?
The value was 7%.

And the Z score?
The Z score was -0.83.

Which results are given for `COc1cccc([C@@H](O)Cn2nnc(Cc3ccccc3C)n2)c1`?
% Inhibition: -2%; Z score: 0.4
